Data taken from PubChem BioAssay AID488969 (Vanderbilt High Throughput Screening Facility, 2010).
In all, about 110,000 compounds were measured (“z-score”: median about -0.1, highest 2% from about 2 on). The list shows a part of the results. The source made the active and inactive calls.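 The calls were made as follows: active = z-score in the third read window above 3 or below -3; inactive = the rest.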

Target: Metabotropic glutamate receptor 8 (Rattus norvegicus) (UniProt P70579)
Experiment: mGluR8 Gi/Go-coupled signaling modulation – cell-based, rat, thallium flux, HTS, primary screen (AID 488969)
Conditions: HEK293 rat mGluR8, GIRK (G protein-gated inwardly rectifying potassium channel) thallium flux, FluoZin2; at 10 µM; stronger effect = higher value; submaximal glutamate (EC20) added with thallium

Chain of UniProt P70579 (P70579 whole entry, looked up): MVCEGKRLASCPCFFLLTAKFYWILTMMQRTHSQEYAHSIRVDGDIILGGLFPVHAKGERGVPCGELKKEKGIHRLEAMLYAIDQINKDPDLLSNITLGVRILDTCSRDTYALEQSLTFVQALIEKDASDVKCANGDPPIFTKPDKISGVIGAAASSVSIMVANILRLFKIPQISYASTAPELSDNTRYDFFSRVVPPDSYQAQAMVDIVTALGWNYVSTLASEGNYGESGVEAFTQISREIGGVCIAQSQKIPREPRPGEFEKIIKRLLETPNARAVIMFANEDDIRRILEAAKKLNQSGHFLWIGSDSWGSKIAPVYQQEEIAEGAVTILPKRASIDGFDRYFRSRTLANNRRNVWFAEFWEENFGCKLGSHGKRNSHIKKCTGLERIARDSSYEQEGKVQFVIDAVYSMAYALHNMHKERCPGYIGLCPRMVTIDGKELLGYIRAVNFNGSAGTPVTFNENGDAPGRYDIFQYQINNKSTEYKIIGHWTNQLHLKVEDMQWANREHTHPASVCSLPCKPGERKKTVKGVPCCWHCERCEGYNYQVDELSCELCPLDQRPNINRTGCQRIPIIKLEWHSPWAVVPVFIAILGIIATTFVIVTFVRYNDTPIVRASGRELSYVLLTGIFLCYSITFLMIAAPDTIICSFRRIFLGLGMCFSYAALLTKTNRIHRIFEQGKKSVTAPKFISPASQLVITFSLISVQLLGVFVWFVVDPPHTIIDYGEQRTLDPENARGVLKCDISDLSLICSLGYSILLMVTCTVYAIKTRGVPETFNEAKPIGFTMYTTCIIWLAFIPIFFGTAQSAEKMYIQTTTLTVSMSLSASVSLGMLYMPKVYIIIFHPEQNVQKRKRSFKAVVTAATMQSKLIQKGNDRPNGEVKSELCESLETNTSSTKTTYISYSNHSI

SMILES | z-score
CC(C)c1nccn1S(=O)(=O)c1cc([N+](=O)[O-])ccc1Cl | -0.182
Cc1cccc(NC(=O)CSc2nnc(-c3ccccc3)n2N)c1 | -0.339
CCc1ccc(NS(=O)(=O)c2ccc3[nH]cc(C(=O)N4CCc5ccccc54)c(=O)c3c2)cc1 | -0.329
Cc1csc2ncc(C(=O)NCc3ccco3)c(=O)n12 | -0.321
CC1(C)CC(O)(CCNCc2ccc3c(c2)OCO3)CCO1 (centres undefined) | 0.411
O=C(NC(Cc1ccc2c(c1)OCO2)C(=O)NC(Cc1ccccc1)C(=O)O)c1ccccc1 (centres undefined) | 0.158
O=C(OCc1nnc(-c2ccccc2)o1)c1cn(-c2ccccc2)nc1-c1ccccc1 | 0.118
COc1ccc(S(=O)(=O)N2CCC(C)CC2)cc1Br | 0.263
CCOc1cc(C2CC(=O)NC(SCC)=C2C#N)ccc1O (centres undefined) | -0.154
CC(=O)c1cnc(Nc2nc(C)c3cc(C)c(C)cc3n2)nc1C | -0.0182
O=C(NC1CCCCCC1)c1c2c(nc3ccccc13)CCN(Cc1ccccc1)C2 | 0.078
O=[N+]([O-])c1ccc(N2CCC(O)CC2)nc1 | 0.0767
Cc1nc(NC2CCCC2)sc1C(=O)N(C)C | -0.165
Cc1ccc2nc(NCc3ccccc3)[nH]c2c1 | 0.56
Cc1ccc(S(=O)(=O)NC(CC(=O)n2nc(C)cc2C)c2ccccc2)cc1 (centres undefined) | -0.3
Cc1ccc(S(=O)(=O)N(C)c2ccc(C(=O)N3CCCCC3)cc2)cc1 | 1.91
O=C(O)CCC(=O)NNC(=O)c1cccc(Br)c1 | -0.13
Cc1cc(C)n(-c2nnc(C)n2NS(C)(=O)=O)n1 | 0.602
COc1ccc(NC(=O)C2CCCN(S(=O)(=O)c3cnc[nH]3)C2)cc1 (centres undefined) | 0.631
CCNC(=O)N1CCOCC1 | 0.19
O=C(N/N=C/c1ccc2c(c1)OCO2)/C(=C/c1ccc2c(c1)OCO2)NC(=O)c1ccccc1 | -0.321
CC(C)C(=O)N(c1cc2sc(=O)oc2c2ccccc12)S(=O)(=O)c1cccs1 | -0.122
Cc1c(NC(=O)N(C)C)c(=O)n(-c2ccccc2)n1C | -0.0915

SMILES | z-score
Cn1cc(S(=O)(=O)N2CCN(C(=O)c3ccco3)CC2)c(=O)n(C)c1=O | -0.13
CCC(=O)c1cc2c(cc1NC(=O)c1cccs1)OCCO2 | 0.603
N#Cc1ccccc1Sc1ccccc1C(=O)OCC(=O)NC1CCS(=O)(=O)C1 (centres undefined) | -0.281
CCn1c(N2CCN(S(=O)(=O)c3ccccc3C(F)(F)F)CC2)nc2ccccc21 | -0.867
O=C(Nc1ccc(Cl)c(Cl)c1)Nc1nnc(-c2ccncc2)s1 | 0.017
Cc1cc(C=C2C(=O)c3ccccc3C2=O)c(C)n1C | -0.00835
CN1C(=O)C(O)(CC(=O)c2cccnc2)c2ccccc21 (centres undefined) | 0.502
S=C(NC1CCCCC1)N1CCc2ccccc2C1 | -0.267
Nc1nnc(CC(=O)N/N=C/c2cccc([N+](=O)[O-])c2)s1 | 0.264
COc1ccc(-c2cc(C#N)nc(N3CCN(c4ccccc4)CC3)n2)cc1 | -0.103
CCOC(=O)CSc1cc(C(F)(F)F)nc(-c2ccccn2)n1 | -0.152
COc1cccc(NC(=O)CN2CCN(c3ccccc3F)CC2)c1 | -0.247
Cc1nnc(-c2ccccc2)c[n+]1[O-] | 0.0799
Cc1ccc(S(=O)(=O)c2cccc(S(=O)(=O)N3CCOCC3)c2)cc1S(=O)(=O)N1CCOCC1 | -0.234
O=C(O)c1ccccc1C(=O)Nc1n[nH]c(=S)s1 | -0.153
CCCS(=O)(=O)N1CCC(C(=O)NCCCOC(C)C)CC1 | -0.0385
CC(C)n1nnnc1SCC(=O)NCc1cccs1 | -0.133
COc1ccc(N2C(=O)C3CCCN3C2c2cc(OC)c(OC)c(OC)c2)cc1 (centres undefined) | 0.741
CC1CCN(CC(=O)n2c3c(c4ccccc42)CCCC3)CC1 | 0.363
CCCCC(=O)Nc1nc(C)c(-c2csc(Nc3cc(OC)ccc3OC)n2)s1 | -0.128
O=C(NCc1ccco1)c1cc(C(=O)C2CC2)c[nH]1 | 0.215
CCNc1ccc(C(=O)Nc2ccc3nc(C)sc3c2)cc1[N+](=O)[O-] | -0.315
C1CN(c2nc3nonc3n3nnnc23)CCO1 | -0.322

SMILES | z-score
COc1cccc(C(=O)NC2CCN(C(=O)N3CCCCC3)CC2)c1 | -0.366
Cc1oc(-c2ccccc2)cc1C(N)=O | -0.0153
C=CCN(CC(=O)NCC1CCCO1)C(=O)CCC(=O)Nc1cc(C)on1 (centres undefined) | -0.189
C#CCSc1nc(-c2cccs2)ccc1C#N | 0.366
C=CCNC(=O)C1CC(=O)N(c2ccc(OCC(=O)Nc3ccccc3)cc2)C1 (centres undefined) | active: 4.85
COc1cc2c(cc1OC)C(C)N(C(=S)Nc1ccccc1)CC2 (centres undefined) | 0.0694
COc1cccc(-c2noc(C(C)n3nc(C)c([N+](=O)[O-])c3C)n2)c1 (centres undefined) | 0.0264
O=C(C/C=N/OCc1ccc(Cl)cc1)c1cnc(-c2ccccc2)s1 | -0.108
O=C(Nc1cccc2ccccc12)N1CCOCC1 | -0.271
COc1ccccc1NC(=O)CSc1ccc2nnc(-c3ccncc3)n2n1 | -0.138
N#Cc1ccsc1NC(=O)CN1CCN(c2ccccc2O)CC1 | 0.137
CCOc1ccc(OCCSc2nc3ccccc3c(=O)[nH]2)cc1 | -0.398
COc1cc(C(=O)NC2CCN(Cc3nnnn3Cc3cccs3)CC2)cc(OC)c1OC | -0.335
CCSc1nc(N)c(C#N)c(-c2ccco2)c1C#N | -0.377
CC(c1nnnn1C1CCCCC1)N(Cc1ccccc1)Cc1cccnc1 (centres undefined) | 1.29
Cc1cccc(OCC(=O)N(Cc2cccs2)C2CCS(=O)(=O)C2)c1C (centres undefined) | -0.196
N#Cc1c(-c2ccc(Cl)cc2)nc2n(c1=O)CCCS2 | 0.928
COc1cc(/C=N/NC(=O)c2ccoc2C)cc(OC)c1O | -0.108
Cc1cc(Cl)c(OCCCCN2CCOCC2)c(Br)c1 | -0.477
O=C1C(=O)N(CCO)C(c2ccccc2)/C1=C(\O)c1ccccc1 (centres undefined) | -0.284
CCCN1C(=O)C(NS(=O)(=O)c2ccc(N)cc2)(C(F)(F)F)C(C(=O)OC)=C1C (centres undefined) | 0.354
Cc1ccc(C(=O)N(Nc2nc3ccccc3s2)C(=O)c2ccc(C)cc2)cc1 | 0.0589
CCn1c(SCC(=O)Nc2ccc3c(c2)OCCO3)nnc1-c1cccs1 | -0.338

SMILES | z-score
FC(F)(F)c1cnc(-c2cnc3c(-c4ccc(Cl)cc4)cnn3c2)c(Cl)c1 | -0.0049
O=C(COC(=O)C1(c2ccc(F)cc2)CCCC1)NC1CC1 | -0.235
O=C(O)CCCC(=O)Nc1ccc(C(=O)N2CCCCC2)cc1 | -0.0517
O=C(CNC(=O)c1cccs1)NCCN1CCN(Cc2ccccc2)CC1 | 0.0379
CCC1(CC)NC(=O)N(CC(=O)Nc2sc3c(c2C(N)=O)CCC3)C1=O | -0.509
COc1ccccc1Oc1ccc2c(c1)C(=O)N(c1cccc3ncccc13)C2=O | 0.848
COc1cccc(CNC(=O)c2ccc3nc[nH]c3c2)c1 | 0.306
Cc1cc(N2C(=O)CC(Cc3ccccc3)C2=O)no1 (centres undefined) | -0.0586
Cc1ccc(C(=O)N/C(=C/c2ccco2)C(=O)Nc2cccc(C)c2)cc1 | -0.287
COc1ccc(NC(=O)CN2CCN(c3nc(-c4cccc(OC)c4)cs3)CC2)cc1 | 1.16
Cc1ccc(NC(=O)CCSc2nc(C)cc(C)n2)cc1 | 0.237
COc1ccccc1OC(=O)CN1C(=O)c2ccccc2C1=O | -0.417
COc1cccc2c(=O)ccoc12 | -0.122
O=C(Oc1cccc(Oc2ccccc2)c1)N1CCOCC1 | -0.663
O=C1CC(NCCC2=CCCCC2)C(=O)N1c1cccc(Cl)c1Cl (centres undefined) | -0.0619
Cc1nnc(Nc2ccccc2)n(N)c1=O | 0.0927
CSc1nc(NC(C)(C)C)nc(N2CCOCC2)n1 | -1.58
COc1ccc(-c2nc(O)c3cnccn23)cc1 | -0.252
O=C(O)CSCC(=O)Nc1ccc(C2CCCCC2)cc1 | -0.331
N/C(COc1cccc(Cl)c1)=N\NS(=O)(=O)c1ccccc1 | 0.0468
O=C(c1ccc2c(c1)OCCCO2)c1cccs1 | 0.575
COc1cc(NC(=S)Nc2cccnc2)cc(OC)c1OC | -0.192
CCN(C(=O)CSc1nc2ccccc2n1CCc1ccccc1)C1CCS(=O)(=O)C1 (centres undefined) | active: 3.88

SMILES | z-score
Cc1cccc(-c2n[nH]c(=S)n2-c2ccccc2)c1[N+](=O)[O-] | -0.306
CCC(=O)Nc1ccccc1C(=O)OCc1ccc(C(=O)c2ccccc2)cc1 | -0.327
O=C(c1sc2cccc(F)c2c1Cl)N1CCN(c2ncccn2)CC1 | -0.465
O=S1(=O)C[C@@H](N2CCOCC2)[C@H](N2CCOCC2)C1 | -0.267
COc1ccc(C2=NOC(C(=O)N3CCOCC3)C2)cc1OC (centres undefined) | -0.0899
COc1ccc(C2CC(=O)N3CN(c4ccc(C)c(Cl)c4)CSC3=C2C#N)cc1OC (centres undefined) | -0.42
CC1=NN(c2ccccc2)C(=O)C1C(=O)c1ccc(Cl)cc1 (centres undefined) | 2.14
Cn1c(N)c(C(=O)COC(=O)C2(c3ccccc3F)CCCC2)c(=O)n(C)c1=O | -0.309
CCC(=O)Nc1cc(C)c(NC(=O)c2ccccc2OC)cn1 | -0.239
COC(=O)c1ccc(OC(=O)CCN2c3ccccc3Sc3ccccc32)cc1 | 0.123
CCCc1c(C)c(C#N)c2nc3ccccc3n2c1NCCCN1CCOCC1 | -0.297
CC(C)Cc1nnc(NC(=O)CCC(=O)N2CCN(c3ccccn3)CC2)s1 | -0.12
Cc1c(Cc2ccccc2)c(=O)oc2cc(OCc3nn[nH]n3)ccc12 | -0.244
COc1ccccc1-c1noc(-c2cccnc2)n1 | 0.0558
Cc1csc(NC(=O)CNS(=O)(=O)c2cccs2)n1 | -1.44
CC(=O)C1(C)N(O)C(C)(C)C(c2ccco2)=[N+]1[O-] (centres undefined) | -0.047
CCOc1ccc(-n2nc3c(SCCN4CCCC4)nnc(C)c3c2C)cc1 | -0.146
COc1ccc(CCNC(=O)COC(=O)/C=C/c2ccc(OC)c(OC)c2)cc1 | -0.0542
O=C(c1ccco1)N1CCN(C(c2ccccc2F)c2nnnn2Cc2cccs2)CC1 (centres undefined) | 0.0453
CC(=O)N=C1SC2CS(=O)(=O)CC2N1c1c(Cl)cccc1Cl (centres undefined) | 0.67
O=C(CSc1nnc(-c2ccncc2)n1CC1CCCO1)Nc1cccc(O)c1 (centres undefined) | -0.162
Cc1c(Cl)cccc1NC(=S)NCCN1CCOCC1 | -0.183
